Test results reported in article PMC4336329 (PLoS ONE, 2015).
About 14,000 (4.5%) of roughly 310,000 compounds showed an effect of 50% or more. Effects have a minus sign here. The list shows a part of the results.

molecular target: human ether-à-go-go-related gene (hERG) potassium channel (human, UniProt Q12809); test: primary screen, population patch clamp on CHO cells stably expressing hERG
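Also: peak tail current of the secondary pulse compared with the same well before compound.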

Sequence of human ether-à-go-go-related gene (hERG) potassium channel (Q12809 whole entry, looked up): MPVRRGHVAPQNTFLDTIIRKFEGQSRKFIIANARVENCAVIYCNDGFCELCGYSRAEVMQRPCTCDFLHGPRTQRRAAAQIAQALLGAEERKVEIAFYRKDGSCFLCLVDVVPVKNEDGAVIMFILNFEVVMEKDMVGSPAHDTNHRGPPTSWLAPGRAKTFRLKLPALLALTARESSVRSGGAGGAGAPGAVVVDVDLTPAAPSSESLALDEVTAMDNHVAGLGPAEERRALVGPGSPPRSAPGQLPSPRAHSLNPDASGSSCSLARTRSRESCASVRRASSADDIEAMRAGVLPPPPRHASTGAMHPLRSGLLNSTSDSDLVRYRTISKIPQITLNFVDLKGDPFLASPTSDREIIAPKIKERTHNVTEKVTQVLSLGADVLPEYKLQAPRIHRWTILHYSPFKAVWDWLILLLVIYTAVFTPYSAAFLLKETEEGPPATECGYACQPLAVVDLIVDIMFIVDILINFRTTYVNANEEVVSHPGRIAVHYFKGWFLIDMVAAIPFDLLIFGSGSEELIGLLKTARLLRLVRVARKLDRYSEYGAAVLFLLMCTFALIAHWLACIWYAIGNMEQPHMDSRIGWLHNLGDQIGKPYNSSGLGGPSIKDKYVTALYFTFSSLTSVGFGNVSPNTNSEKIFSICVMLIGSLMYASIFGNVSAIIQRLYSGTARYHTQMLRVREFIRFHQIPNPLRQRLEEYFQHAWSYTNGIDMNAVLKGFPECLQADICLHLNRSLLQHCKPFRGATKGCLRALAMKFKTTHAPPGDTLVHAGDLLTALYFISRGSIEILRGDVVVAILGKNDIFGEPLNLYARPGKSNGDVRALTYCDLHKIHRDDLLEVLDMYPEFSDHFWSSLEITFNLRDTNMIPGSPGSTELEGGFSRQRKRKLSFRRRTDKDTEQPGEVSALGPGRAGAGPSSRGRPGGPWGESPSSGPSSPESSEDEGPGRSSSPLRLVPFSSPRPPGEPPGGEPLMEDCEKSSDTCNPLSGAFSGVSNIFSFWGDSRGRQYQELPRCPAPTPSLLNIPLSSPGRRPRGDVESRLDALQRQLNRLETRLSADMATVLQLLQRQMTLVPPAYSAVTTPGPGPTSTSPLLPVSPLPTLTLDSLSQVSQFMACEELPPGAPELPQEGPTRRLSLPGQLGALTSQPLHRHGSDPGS

Row | SMILES | hERG current change (%, negative = inhibition) at 10uM
1 | COc1cc(NS(=O)(=O)c2ccc(NC(=O)COc3ccc(C)cc3C)cc2)nc(OC)n1 | -10.7%
2 | Cc1ccc(S(=O)(=O)NNC(=O)CCC(=O)Nc2ccc(C)c(C)c2)cc1 | 9.01%
3 | O=C(CCc1ccc(S(=O)(=O)N2CCOCC2)cc1)NN=C1CCCCCCC1 | -17.5%
4 | CC(C)OC(=O)CSc1nc(-c2ccc(F)cc2)cc(C(F)(F)F)n1 | 11.7%
5 | COc1cccc(C2CC(c3ccc(C)cc3)=NN2C(=O)c2ccccc2F)c1OC (stereo not shown) | 11.8%
6 | C=CCSc1ncnc2sc(C)c(C)c12 | 9.87%
7 | CS(=O)(=O)c1ccc(N)cc1 | 7.62%
8 | O=C(Nc1nccs1)c1ccc2c(c1)OCO2 | 16.3%
9 | CC1(C)CC(=O)C/C(=N/NC(=O)C2CCN(S(=O)(=O)c3cccs3)CC2)C1 | 20%
10 | CCOC(=O)c1sc2nc(C)nc(SC(C)C(=O)NC3CC3)c2c1C (stereo not shown) | 10%
11 | O=c1[nH]c(=S)n(C2CC2)c(O)c1C=Nc1cccc(C(F)(F)F)c1 | 12.8%
12 | CNC(=S)N1CCC(NC(=O)c2ccco2)CC1 | 0.31%
13 | Cc1nnsc1S(=O)(=O)Cc1ccccc1C(F)(F)F | -3.42%
14 | COc1cc(-c2noc(C)c2-c2ccc(N(C)C)nc2)cc(OC)c1OC | -26.4%
15 | Cc1ccc(NC(=S)NN2CCOCC2)c(C)c1 | 5.25%
16 | O=C(Nc1nnc(-c2ccc3c(c2)CCCC3)o1)c1ccccc1Cl | -10.2%
17 | CCOP(=O)(OCC)c1cccc(OP(=O)(c2cccc([N+](=O)[O-])c2)c2cccc([N+](=O)[O-])c2)c1 | 11.1%
18 | Cn1nnnc1SCC(=O)N1CCN(C(c2ccccc2)c2ccccc2)CC1 | -14.7%
19 | COc1ccc(CNC(=O)COc2ccc(F)cc2)cc1 | 2.33%
20 | CSc1ccc(C(=O)C2CCCN(C(=O)CCc3c(C)nn(C)c3C)C2)cc1 (stereo not shown) | 0.803%

Row | SMILES | hERG current change (%, negative = inhibition) at 10uM
21 | NS(=O)(=O)c1ccc(CCNC(=O)c2cncc(Br)c2)cc1 | -2.92%
22 | COc1ccc([N+](=O)[O-])cc1NC(=O)COC(C)=O | 31.5%
23 | COc1ccc(C=Nc2cccnc2N)cc1 | 21.9%
24 | COc1ccc(-c2cc(C(=O)N(C)CC(=O)Nc3ccccc3Br)c3ccccc3n2)cc1OC | -15.1%
25 | Cc1ccc(CN2CC(C(=O)N3CCN(S(=O)(=O)c4ccc(C)cc4C)CC3)CC2=O)cc1 (stereo not shown) | -28.2%
26 | CCOc1ccc(/C=C(/NC(=O)c2ccccc2Cl)C(=O)O)cc1 | 13%
27 | CCCNC(=O)c1ccc(SCC(=O)N(CC)CC)c([N+](=O)[O-])c1 | -13.2%
28 | O=C(NCc1csc(-c2cccs2)n1)Nc1cccc(Cl)c1 | 5.12%
29 | COCCCNC(=S)NC1CC2CCC(C1)N2Cc1ccccc1 (stereo not shown) | -33.8%
30 | Cc1nn(C(=O)c2ccoc2C)c(N)c1-c1ccccc1 | -7.95%
31 | Cc1ccc(Nc2nc(C(=O)NCc3ccco3)cs2)cc1 | -13.5%
32 | O=C(NC1CCSc2ccccc21)c1cccc(Br)c1 (stereo not shown) | 16.7%
33 | O=C(Nc1nnc(-c2ccccc2)s1)c1cccc(S(=O)(=O)N2CCOCC2)c1 | 7.54%
34 | CC(C)Cc1cc(C(=O)N2CCC(N3CCC(C(=O)NC4CC4)CC3)CC2)n[nH]1 | -12.4%
35 | C/C(=N\NC(=O)COc1ccc(C(C)(C)C)cc1)c1ccc(OC(F)F)cc1 | -1.27%
36 | Cc1cccnc1-n1c(-c2ccccc2)nc2ccccc2c1=O | -2.8%
37 | CN1CCN(S(=O)(=O)c2cccc(C(=O)Oc3cccc(C#N)c3)c2)CC1 | -1.89%
38 | Brc1cccc(CNCc2cccs2)c1 | -10.2%
39 | CC1=C(C(=O)OCc2ccccc2)C(c2ccco2)C2=C(CC(C)(C)CC2=O)N1 (stereo not shown) | -7.52%
40 | O=C(CN1C(=O)C2CC=C(Cl)CC2C1=O)N1CCOCC1 (stereo not shown) | -2.87%

Row | SMILES | hERG current change (%, negative = inhibition) at 10uM
41 | CCOC(=O)c1ccccc1NC(=O)c1ccccc1NS(C)(=O)=O | -0.0503%
42 | COC(=O)c1sc(-c2ccc(C(C)(C)C)cc2)cc1NC(=O)COCC(=O)O | 19.3%
43 | Cc1ccc(SC(=O)c2c(C)noc2-c2cc(C)on2)cc1 | 11.8%
44 | Cc1ccc2oc(-c3ccc(C)c(NC(=O)Cc4cccs4)c3)nc2c1 | 12%
45 | Cc1cc(O)c(C(C)C)cc1N=C1CSC(=O)N1 | 4.9%
46 | CC(Oc1cccc(Cl)c1)C(=O)Nc1ccc(N2CCOCC2)cc1N1CCOCC1 (stereo not shown) | -47.9%
47 | COc1cccc2c(=O)ccoc12 | -7.89%
48 | CC(C)Oc1c(N2CCOCC2)c(=O)c1=O | 16.3%
49 | C#CCN1C(=O)C(O)(CC(=O)c2cccc(OC)c2)c2ccccc21 (stereo not shown) | 11.9%
50 | Cc1cn2c(nc1=O)OC1C(O)C(COC(=O)c3ccccc3)OC12 (stereo not shown) | 12.9%
51 | CCOc1cccc2sc(N(CCN(CC)CC)C(=O)c3cccc(N4C(=O)CCC4=O)c3)nc12.Cl | -68.4%
52 | Cc1ccccc1OCCn1nc(C(=O)O)c2ccccc2c1=O | -20.5%
53 | Nc1cccnc1Sc1cc(Cl)cc(Cl)c1 | -18.1%
54 | Cc1nnc(NC(=O)C2CCCC2)s1 | 17.3%
55 | CC12CCC(C(=O)NNc3ccccc3)(OC1=O)C2(C)C (stereo not shown) | 10.6%
56 | Cc1ccc(C2(c3noc(CN4CCOCC4)n3)CCCC2)cc1 | 17.3%
57 | COc1ccc(C(=S)N2CCOCC2)cc1OC(=O)c1ccc([N+](=O)[O-])cc1 | -63%
58 | COc1cccc(-n2c(N)cc(=O)nc2SCC(=O)N2CCN(c3ccccc3)CC2)c1 | 18.7%
